Consider 87 molecules from the supplement of paper PMC4723716.

Each structure is given as a SMILES string. The full ranking holds about 3,600 compounds; the median of “viability index relative to DMSO control” is about 0.81, and the lowest 2% start at about 0.13. The list shows a part of the results.
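Note: 384-well serum-free SaLSSA: MitoTracker Red CMXRos staining with saponin lysis, high-content imaging, treated-well particle count divided by plate-mean count of DMSO wells.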

The assay relates to Plasmodium falciparum NF54 stage V gametocytes. Nature of the assay: viability index relative to DMSO control (fraction); higher = less gametocyte killing. The settings on record: 1.25 µM, incubation time: 72 h.
In turn, `COCCOC(=O)C1=C(C)NC2=C(C(=O)CC(c3ccc(OC)c(OC)c3)C2)C1c1ccccc1F` (configuration not stated) yielded a viability index of 0.807.
On to `Cc1ccc(N2C(=O)C3C(C2=O)C2(c4ccccc4)C(=O)C3(c3ccccc3)C(c3ccccc3)=C2c2ccccc2)cc1[N+](=O)[O-]` (configuration not stated), for which the viability index was found to be 0.839.
The same measure for `O=C(NCc1ccco1)c1ccc(OC2CCN(Cc3ccncc3)CC2)c(Cl)c1`: 0.905; for `Cc1ccc2c(c1)N=C(c1ccc([N+](=O)[O-])cc1)CO2`: 1.02; for `Cn1cnc(S(=O)(=O)Nc2ccccc2C(=O)NCC2CC2)c1`: 0.726.
With `OC1CCCCC1C1(NC(=S)Nc2ccccc2)CCCCC1` (configuration not stated) the figure was 1.08.
In turn, `O=C(Nc1ccc(C23CC4CC(CC(c5ccccc5)(C4)C2)C3)cc1)c1cccs1` returned a viability index of 0.63.
Take `O=C(Nc1ccc(-c2nc3ccc(NC(=O)c4cccc5ccccc45)cc3[nH]2)cc1)c1cccc2ccccc12`: the viability index was determined as 1.04.
In the case of `COc1ccccc1Cc1nc2ccccc2nc1SCC(=O)Nc1cccc(C(F)(F)F)c1`, the viability index is 0.855.
The molecule `Cc1cc2c(cc1C)NC(c1ccc(Cl)c(F)c1)C1=C(CC(C)(C)CC1=O)N2` (configuration not stated) came in with a viability index of 0.547.
The same measure for `COc1ccc(CCNC(=O)c2cc(S(=O)(=O)N3CCC4(CC3)OCCO4)ccc2F)cc1OC`: 1.17; for `COC(=O)C1=C(C(=O)OC)SC(=C2C(=S)C(C)(C)N(C(=O)c3ccc([N+](=O)[O-])cc3)c3ccc(C)cc32)S1`: 0.706; for `Cc1ccc(O)c(NC(=O)c2cnn3c(C(F)(F)F)cc(-c4ccc(Br)cc4)nc23)c1`: 0.816.
Consider `CCN1CCN(c2cc(C)c3cc(NC(=O)C=Cc4cccc(Cl)c4)ccc3n2)CC1`, for which the viability index was found to be 0.747.
With `CCCCOc1ccc(C2C3CCCC=C3C(C#N)=C(N)C2(C#N)C#N)cc1` (configuration not stated) the figure was 0.735; with `O=C1C(=Cc2ccccc2)SC(=Nc2ccccc2)N1C1CCCCC1`, 0.649; with `c1ccc(Cn2nnnc2CN2CCN(C(c3ccccc3)c3ccccc3)CC2)cc1`, 0.906.
On to `OC1=C2C(=Nc3ccccc3SC2c2ccc(Br)cc2)c2ccccc21` (configuration not stated), for which the viability index amounted to 0.799.
Molecule `COc1ccc(Nc2c3c(nc4ccc(NC(=O)c5cc(=O)c6ccccc6o5)cc24)CCCC3)cc1OC` yielded a viability index of 0.913.
The same measure for `O=C(Nc1ccc(-c2ccc(Cl)cc2)cc1)c1cccs1`: 0.595; for `CCn1c(SCc2ccc(Cl)cc2Cl)nc2sc3c(c2c1=O)CCN(C)C3`: 1.12.
For the molecule `COc1ccc(C(=O)C(C#N)=CNC2CCN(Cc3ccccc3)CC2)cc1`, the viability index is 0.867.
On to `CCCC(=O)N1CCN(c2nc(Cc3ccccc3)c3c(c2C#N)CC(C)(C)OC3)CC1`, for which the viability index was 0.568.
Turning to `COC(=O)C1=C(C)NC(=Cc2cc(C)n(-c3cc(C)ccc3OC)c2C)C1=O`, the viability index was found to be 0.954.
Turning to `O=C(CCl)NCCOc1ccc(Cl)cc1Cl`, the viability index turned out to be 0.939.
With `O=c1c2c3c(sc2ncn1Cc1cccc(Cl)c1)CC(N1CCCCC1)CC3` (configuration not stated) the figure was 0.808.
The molecule `COc1ccc(Nc2nc(N3CCCC3)c3ccccc3n2)cc1` showed a viability index of 0.74.
The same measure for `OC(Cn1nnc2ccccc21)Cn1c2ccc(Br)cc2c2cc(Br)ccc21` (configuration not stated): 0.902; for `CC(C)(C)c1cc(CCC(=O)Nc2c3c(nc4ccccc24)N(c2cccc(Cl)c2)CC3)cc(C(C)(C)C)c1O`: 0.947; for `COC(=O)C1=CNC=C(C(=O)OC)C1c1ccc(Cl)c([N+](=O)[O-])c1`: 0.712.
On to `COc1ccc(OCC(O)CNC2CCN(CC(O)COc3ccc(Cl)c(Cl)c3)CC2)cc1` (configuration not stated), for which the viability index was found to be 0.56.
Molecule `COc1cc(OC)cc(C(=O)N2CCN(c3ccccn3)CC2)c1` registered a viability index of 0.541.
With `CCOc1ccc(Nc2nc(N)c3ccccc3n2)cc1`, the viability index worked out at 1.08.
`Cc1cc(N2CCN(C)CC2)nc2ccc(NC(=O)Nc3ccccc3Cl)cc12` gave a viability index of 0.863.
For `CCCCOc1ccc(NC2=C(N3CCCCC3)C(=O)c3ccccc3C2=O)cc1`, the viability index turned out to be 0.166.
On to `CC(=O)Nc1c(NCc2ccccc2)c2ccccc2sc1=O`, for which the viability index turned out to be 0.596.
With `CN(C)CCN1CCN(c2cccc(-c3cccc4cccnc34)n2)CC1` the figure was 0.685; with `CCOC(=O)C1=C(C)NC2=C(C(=O)CC(c3ccc(OC)c(OC)c3)C2)C1c1ccccc1F` (configuration not stated), 0.467.
`CCOC(=O)C1=C(C)NC2=C(C(=O)C(C(=O)OCC)C(c3ccccc3OC)C2)C1c1ccc([N+](=O)[O-])cc1` (configuration not stated) showed a viability index of 0.193.
In turn, `CC1CN(C(=O)c2sc3cccc(F)c3c2Cl)CC(C)O1` (configuration not stated) showed a viability index of 0.731.
As to `C=CCSc1nc2sc3c(c2c(=O)n1-c1ccccc1)CCN(C)C3`, the viability index is 0.931.
The same measure for `Cc1ccc(NC(=S)NCCO)cc1C`: 0.846; for `COc1ccc(C2C(C(=O)OC3CCCC3)=C(C)NC3=C2C(=O)CC(C)(C)C3)cc1Br` (configuration not stated): 0.642; for `Cc1ccccc1N=c1oc2ccc3ccccc3c2cc1-c1nc2ccccc2[nH]1`: 0.815.
`CCn1c(SCC(=O)Nc2cccc(C)c2)nnc1-c1ccccc1` had a viability index of 1.06.
With `CCOC(=O)C1=C(CC)NC2=C(C(=O)CC(C)(C)C2)C1c1ccccc1F` (configuration not stated) the figure was 0.743.
On to `COc1ccc2c(c1)OC(O)(C(F)(F)C(F)(F)F)CC2=O` (configuration not stated), for which the viability index was 0.6.
In the case of `COc1cc(C(=O)C=CNc2ccc(N(C)C)cc2)cc(OC)c1OC`, the viability index is 0.826.
With `Cc1cccc(NC(c2cccc(Cl)c2)c2ccc3cccnc3c2O)n1` (configuration not stated), the viability index is 1.03.
Take `COc1ccc(C2CC(=O)C3=C(C2)NC(C)=C(C(=O)OC(C)C)C3c2ccc(F)cc2)cc1OC` (configuration not stated): the viability index came to 0.344.
With `Cc1nc(NC(=N)N)nc2c(C)cccc12` the figure was 0.795.
With `Cc1cc(CNC(=O)CC2C(=O)NCCN2Cc2ccccc2C(F)(F)F)nn1C` (configuration not stated) the figure was 0.615.
As for `c1cc2cc3c(cc2c2cc4c(cc12)C[N+]1(CCCC1)C4)C[N+]1(CCCC1)C3`, the viability index turned out to be 0.598.
The same measure for `O=C(Nc1ccc(-c2nc3ccccc3[nH]2)cc1)c1ccc(-c2cccc([N+](=O)[O-])c2)o1`: 0.751.
In turn, `COc1ccc(OC)c(NC(=O)CSc2nc(NCc3ccc(Cl)cc3)c3ccccc3n2)c1` gave a viability index of 0.921.
Regarding `COc1cccc(Cn2c3cc(C)sc3c3cnn(C)c(=O)c32)c1`, the viability index turned out to be 0.536.
`CCC(=O)NC(c1cccc([N+](=O)[O-])c1)c1ccc2cccnc2c1O` (configuration not stated) had a viability index of 1.12.
`COc1ccc(Cn2c(C)nc3cc(NC(=O)Nc4ccccc4)c(C)nc32)cc1` showed a viability index of 0.792.
With `CCCCNC(=O)C1CCC(CN(Cc2c(Cl)cccc2Cl)S(=O)(=O)c2ccc(Br)cc2)CC1` (configuration not stated), the viability index came to 0.884.
With `CCC(CC)C(=O)Nc1c2c(nn1-c1cccc(Cl)c1)CS(=O)C2` (configuration not stated) the figure was 0.802; with `COc1ccc(OC)c(-c2ccc(O)c(CN3CCCC(C)C3)c2)c1` (configuration not stated), 0.644.
The same measure for `CN=C1S/C(=C\c2ccc(OCC(=O)O)c(OC)c2)C(=O)N1C`: 0.588; for `CN(c1ccc(Br)cc1)S(=O)(=O)c1ccc2[nH]cc(C(=O)N3CCN(c4ccccc4)CC3)c(=O)c2c1`: 1.37; for `CC(=O)N(C1=C(N2CCCCC2)C(=O)c2ccccc2C1=O)c1ccccc1C`: 0.31.
The molecule `Cc1ccccc1N=Nc1ccc(NC(=O)c2ccco2)c(C)c1` showed a viability index of 0.761.
As to `CCOC(=O)C1=C(C)N=c2sc(=Cc3ccccc3OC(C)=O)c(=O)n2C1c1ccc(OC)cc1` (configuration not stated), the viability index was found to be 0.747.
Consider `N#Cc1c(-c2ccccc2)cc(N2CCN(Cc3ccc(Cl)cc3)CC2)n2c1nc1ccccc12`, for which the viability index stood at 0.575.
The molecule `Cc1ccc(C)c(NC(=O)c2c(-c3c(Cl)cccc3Cl)noc2C)c1` yielded a viability index of 0.861.
With `CC(=O)N(C1=C(N2CCOCC2)C(=O)c2ccccc2C1=O)c1ccc(C(C)C)c(C)c1`, the viability index was 0.509.
The same measure for `COC(OC)C(C)=NNC(N)=S`: 0.112; for `Cn1c(=O)c(Cl)c2c3c(c(Cl)ccc31)C(=O)c1ccccc1-2`: 0.0761.
The same measure for `CCOC(=O)C1=C(c2ccccc2)N=c2sc(=Cc3cccnc3)c(=O)n2C1c1c(OC)ccc2ccccc12` (configuration not stated): 0.853.
Regarding `COc1ccc(CCN2C(=O)CC(C(=O)Nc3cccc(Cl)c3)SC2=Nc2ccccc2)cc1OC` (configuration not stated), the viability index worked out at 1.08.
In the case of `COc1cc2nc(N3CCN(c4nc(N)c5cc(OC)c(OC)cc5n4)CC3)nc(N)c2cc1OC`, the viability index is 0.0192.
As for `Cc1ccccc1CN1CCN(CC=Cc2ccccc2)CCC1=O`, the viability index was found to be 0.981.
Regarding `Cc1ccc(NC(=O)COc2ccc(Cl)cc2Cl)nc1`, the viability index was 0.976.
On to `CCCCCOC(=O)C1=C(C)NC2=C(C(=O)CCC2)C1c1ccc(OC)c(Br)c1` (configuration not stated), for which the viability index worked out at 0.638.
Regarding `Cc1ccc(NC(=O)c2cc3ccccc3oc2=O)nc1`, the viability index was determined as 1.12.
In the case of `Oc1ccc(-c2nc(-c3ccccc3)c(-c3ccc4oc5ccc(-c6[nH]c(-c7ccc(O)cc7)nc6-c6ccccc6)cc5c4c3)[nH]2)cc1`, the viability index was 0.914.
Turning to `CCN(CC)S(=O)(=O)c1ccc(-c2csc(=Nc3cccc4ccccc34)n2C)cc1`, the viability index came to 1.05.
The molecule `O=C1CSc2nc3ccccc3n21` had a viability index of 1.12.
For `COc1ccc(C2CC(=O)C3=C(C2)NC(C)=C(C(=O)OC2CCCC2)C3c2cccc(C)c2)cc1OC` (configuration not stated), the viability index turned out to be 0.811.
With `O=c1c2ccccc2[nH]c2ccc(F)cc12` the figure was 1.13; with `CCOC(=O)c1cccc(NC(=O)CC2C(=O)N(c3ccccc3)C(=O)N2C2CCCC2)c1` (configuration not stated), 0.341.
For `O=C1OC(c2ccccc2)=NC1=C(Cl)Cl`, the viability index came to 1.1.
Consider `c1ccc2c(NC3CCCC3)nc(Nc3ccc4c(c3)OCO4)nc2c1`, for which the viability index turned out to be 0.632.
Take `CC1=C(C(=O)OCCOc2ccccc2)C(c2cccc([N+](=O)[O-])c2)C2=C(CCCC2=O)N1` (configuration not stated): the viability index worked out at 1.22.
